No constants are given. Whether binding was seen depends on the method and setting. Some entries that bind do so weakly or less than the wild type.
Key:
Assay in all cases: tandem affinity co-purification (anti-Flag resin, then Strep-Tactin resin) with SDS-PAGE; three subunits co-expressed in Expi293F; complex purified by 3×Flag on Vtc3 and 2×Strep on Vtc4; no InsP6 added, 0.02% DDM
Vtc3 = molecular target: T1, Vtc3 (Baker's yeast, UniProt Q02725 1-835)
T1 construct: Vtc3, yeast, UniProt Q02725; codon-optimized DNA in the pMlink vector; source: Expi293F cells, transiently cotransfected with the Vtc1 and Vtc4 plasmids; purified as part of the VTC complex (anti-Flag resin, Strep-Tactin resin; SEC for the cryo-EM sample); not shown: 3×Flag, N-terminal, kept
T1 sequence: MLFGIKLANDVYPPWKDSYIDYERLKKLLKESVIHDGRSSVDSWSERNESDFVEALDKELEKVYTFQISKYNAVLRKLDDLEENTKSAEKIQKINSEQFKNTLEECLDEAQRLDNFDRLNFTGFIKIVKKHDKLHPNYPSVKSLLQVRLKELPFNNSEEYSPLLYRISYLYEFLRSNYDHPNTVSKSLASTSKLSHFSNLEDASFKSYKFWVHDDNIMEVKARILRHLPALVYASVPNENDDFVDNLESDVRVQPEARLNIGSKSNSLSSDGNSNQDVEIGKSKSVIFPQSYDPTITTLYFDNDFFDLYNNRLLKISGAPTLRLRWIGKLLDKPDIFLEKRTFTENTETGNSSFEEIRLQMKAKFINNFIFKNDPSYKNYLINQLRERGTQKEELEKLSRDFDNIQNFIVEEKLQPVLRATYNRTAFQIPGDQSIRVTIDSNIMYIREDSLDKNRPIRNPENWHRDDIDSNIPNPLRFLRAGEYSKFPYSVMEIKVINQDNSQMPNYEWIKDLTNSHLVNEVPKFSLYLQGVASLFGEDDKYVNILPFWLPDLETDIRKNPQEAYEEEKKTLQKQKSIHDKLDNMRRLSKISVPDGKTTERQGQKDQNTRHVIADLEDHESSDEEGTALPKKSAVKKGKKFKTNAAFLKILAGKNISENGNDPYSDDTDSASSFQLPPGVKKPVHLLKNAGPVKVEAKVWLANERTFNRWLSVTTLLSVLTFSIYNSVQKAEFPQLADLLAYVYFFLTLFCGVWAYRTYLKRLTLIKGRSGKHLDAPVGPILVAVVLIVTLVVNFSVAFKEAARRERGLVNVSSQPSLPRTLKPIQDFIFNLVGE

Amino acid sequences for entries named in this document (tags omitted). A change or cut given only in a name is not applied to a line headed by its entry.
UniProt P47075: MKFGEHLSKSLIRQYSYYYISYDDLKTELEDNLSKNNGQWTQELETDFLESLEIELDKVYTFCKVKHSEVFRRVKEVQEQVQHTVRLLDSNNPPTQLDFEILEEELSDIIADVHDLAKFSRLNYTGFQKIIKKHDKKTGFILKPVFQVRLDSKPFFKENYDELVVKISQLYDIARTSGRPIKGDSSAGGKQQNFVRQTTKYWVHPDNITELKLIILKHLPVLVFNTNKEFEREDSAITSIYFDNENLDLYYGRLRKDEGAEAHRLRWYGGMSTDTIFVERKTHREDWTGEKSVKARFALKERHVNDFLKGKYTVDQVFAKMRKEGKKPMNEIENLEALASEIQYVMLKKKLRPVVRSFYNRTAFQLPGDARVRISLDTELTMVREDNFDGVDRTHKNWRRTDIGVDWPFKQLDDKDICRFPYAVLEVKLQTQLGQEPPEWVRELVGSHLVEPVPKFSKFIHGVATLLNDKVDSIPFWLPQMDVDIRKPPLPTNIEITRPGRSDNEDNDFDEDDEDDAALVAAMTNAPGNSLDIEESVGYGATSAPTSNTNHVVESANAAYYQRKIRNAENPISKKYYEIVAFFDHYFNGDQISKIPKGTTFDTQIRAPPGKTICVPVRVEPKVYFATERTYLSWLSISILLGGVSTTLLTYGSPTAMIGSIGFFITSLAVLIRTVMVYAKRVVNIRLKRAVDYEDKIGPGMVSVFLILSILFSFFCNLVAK

[1] = molecular target: T2, Vtc3_(K333A/K362A/K364A/Y380F) (Baker's yeast) (UniProt Q02725)
T2 sequence: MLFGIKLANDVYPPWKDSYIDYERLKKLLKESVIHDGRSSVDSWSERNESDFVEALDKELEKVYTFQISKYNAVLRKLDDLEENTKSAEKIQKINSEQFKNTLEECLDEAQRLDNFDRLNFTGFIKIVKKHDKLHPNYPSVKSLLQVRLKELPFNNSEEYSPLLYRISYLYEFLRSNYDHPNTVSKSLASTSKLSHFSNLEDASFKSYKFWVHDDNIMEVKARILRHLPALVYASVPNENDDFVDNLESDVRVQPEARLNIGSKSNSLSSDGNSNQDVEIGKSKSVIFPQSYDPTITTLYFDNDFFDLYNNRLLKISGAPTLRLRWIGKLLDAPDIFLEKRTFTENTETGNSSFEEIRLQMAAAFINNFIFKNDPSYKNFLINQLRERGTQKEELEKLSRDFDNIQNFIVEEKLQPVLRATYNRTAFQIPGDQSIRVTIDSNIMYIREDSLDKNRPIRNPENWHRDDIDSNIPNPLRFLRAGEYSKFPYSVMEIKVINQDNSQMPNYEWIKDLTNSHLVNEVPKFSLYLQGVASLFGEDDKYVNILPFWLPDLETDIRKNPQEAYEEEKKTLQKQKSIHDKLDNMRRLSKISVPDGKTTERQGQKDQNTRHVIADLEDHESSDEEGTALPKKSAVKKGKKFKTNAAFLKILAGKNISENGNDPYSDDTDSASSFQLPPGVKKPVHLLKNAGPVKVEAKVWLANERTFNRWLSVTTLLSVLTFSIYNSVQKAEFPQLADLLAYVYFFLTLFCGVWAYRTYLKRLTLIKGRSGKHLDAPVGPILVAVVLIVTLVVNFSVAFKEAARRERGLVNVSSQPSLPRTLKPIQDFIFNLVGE

[2] = molecular target: Vtc4_(K129A/K132A/K136A) (Baker's yeast) (UniProt P47075)
Vtc4 (Baker's yeast) = Vtc4 (Baker's yeast) (UniProt P47075)
[3] = molecular target: Vtc4_(K300A/R302A/K320A) (Baker's yeast) (UniProt P47075)
[4] = molecular target: Vtc4_(K622A/R629A) (Baker's yeast) (UniProt P47075)
[5] = molecular target: Vtc4_(Y22F/K26A/K133A) (Baker's yeast) (UniProt P47075)

Measured: binding

Vtc4 (from UniProt P47075 2-721)
binds: Vtc3 | [1]

B1: Vtc1 (natural protein, Baker's yeast)
chain: SSAPLLQRTPGKKIALPTRVEPKVFFANERTFLSWLNFTVMLGGLGVGLLNFGDKIGRVSAGLFTFVAMGTMIYALVTYHWRAAAIRRRGSGPYDDRLGPTLLCFFLLVAVIINFILRLKYNDANTKL
notes: Vtc1, yeast, UniProt P40046; codon-optimized DNA in the pMlink vector; Three copies of Vtc1 stand in the Vtc1/Vtc3/Vtc4 complex (3:1:1); also called Vtc1A; Vtc1B; source: Expi293F cells, transiently cotransfected with the Vtc3 and Vtc4 plasmids; purified as part of the VTC complex (anti-Flag resin, Strep-Tactin resin; SEC for the cryo-EM sample)
not listed: Vtc3
binds: all other assays above

— paper PMC9911596 (Nature Communications, 2023)
